According to the supplement of paper PMC11348887:
Several values for one entry are separate records, joined by “and”; a condition that tells them apart may be missing. Identical values can stand only once. Counter-ions that a name gives are not always drawn. This is one part of the list. Cut-off read from the data, not from the text of the source: active = -2 or less and inactive = the rest. Repeats are few or missing, and single values can be far off.

system: hPSC-derived cortical neurons (WA09); test: nuclei number (viability) z-score; higher = more surviving cells; settings: 5 µM; treatment: days 7-14 after plating, readout day 21
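Note: nuclei counted from DAPI counterstain by automated high-content image analysis, four fields per well at ×20 in 384-well plates, with sequential b-score then z-score normalization.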

| Compound | nuclei number (z-score) |
| --- | --- |
| CC1(C)CC(=O)c2c(C(F)(F)F)nn(-c3ccc(C(N)=O)c(N[C@H]4CC[C@H](OC(=O)CN)CC4)c3)c2C1 | active: -8.18 |
| O=C(CCCN1CCC(O)(c2ccc(Cl)cc2)CC1)c1ccc(F)cc1 [Haloperidol] | inactive: -0.962 |
| COc1cc2c(cc1OC)[C@@H]1Cc3ccc(OC)c(OC)c3CN1CC2 [Rotundine] | inactive: 8.97 |
| Cc1ccc(C)c(OCCCC(C)(C)C(=O)O)c1 [Gemfibrozil] | inactive: 2.47 |
| O=C(O)C[C@H](O)C[C@H](O)/C=C/c1c(C2CC2)nc2ccccc2c1-c1ccc(F)cc1 [Pitavastatin Calcium] | active: -4.86 |
| Cc1ccc(Sc2ccccc2N2CCNCC2)c(C)c1 | inactive: -1.07 |
| C[C@H](NC(=O)CCc1nc2ccccc2c(=O)[nH]1)c1ccccc1 | inactive: 2.03 |
| NCC(=O)CCC(=O)O [5-Aminolevulinic acid HCl] | inactive: 0.504 |
| NC(=O)c1ccc[n+]([C@@H]2O[C@H](COP(=O)([O-])OP(=O)(O)OC[C@H]3O[C@@H](n4cnc5c(N)ncnc54)[C@H](O)[C@@H]3O)[C@@H](O)[C@H]2O)c1 | inactive: 0.165 |
| CN1CCC(CNc2ccc3ncc(-c4cccc(OC(F)(F)F)c4)n3n2)CC1 [SGI-1776 free base] | active: -7.71 |
| COc1ccc(C[C@H](NC(=O)[C@H](C)NC(=O)CN2CCOCC2)C(=O)N[C@@H](Cc2ccccc2)C(=O)[C@@]2(C)CO2)cc1 | active: -4.42 |
| CC(C[N+](C)(C)C)OC(N)=O (configuration not stated) [Bethanechol chloride] | inactive: 2.21 |
| NCCC(O)(P(=O)(O)O)P(=O)(O)O [Pamidronate Disodium] | inactive: -0.251 |
| Cc1ccc2nc(NCCN)c3ncc(C)n3c2c1 | inactive: 0.379 |
| Cc1c(NC(=O)OC[C@@H]2COCCN2)cn2ncnc(Nc3ccc4c(cnn4Cc4cccc(F)c4)c3)c12 | inactive: 1.56 |
| Cc1cn([C@H]2C[C@H](N=[N+]=[N-])[C@@H](CO)O2)c(=O)[nH]c1=O [Zidovudine] | inactive: -0.359 |
| COc1ccc([C@@H]2Sc3ccccc3N(CCN(C)C)C(=O)[C@@H]2OC(C)=O)cc1 [Diltiazem HCl] | inactive: -0.105 |
| CC(=O)c1cc([N+](=O)[O-])c(Sc2ccc(F)cc2F)s1 | inactive: 0.624 |
| NS(=O)(=O)Cc1noc2ccccc12 [Zonisamide] | inactive: 0.0716 |
| COc1ccc2c(c1)C(=O)N(CCc1ccc(S(=O)(=O)NC(=O)NC3CCCCC3)cc1)C(=O)C2(C)C [Gliquidone] | inactive: 0.584 |
| C=CCc1ccc(O)c(-c2cc(CC=C)ccc2O)c1 [Magnolol] | inactive: 0.922 |
| Cc1cnc(-c2cnc(NCCNc3ccc(C#N)cn3)nc2-c2ccc(Cl)cc2Cl)[nH]1 | inactive: -0.0385 and inactive: -1.89 |
| CCNC(=O)c1noc(-c2cc(C(C)C)c(O)cc2O)c1-c1ccc(CN2CCOCC2)cc1 | active: -2.72 |
| CC(=O)C1=C(O)C=C2Oc3c(C(C)=O)c(O)c(C)c(O)c3C2(C)C1=O (single isomer, unassigned; (+)) [(+)-Usniacin] | inactive: -0.0573 |

| Compound | nuclei number (z-score) |
| --- | --- |
| CNCc1ccc(-c2[nH]c3cc(F)cc4c3c2CCNC4=O)cc1 | inactive: -0.15 |
| CCCNC(C)C(=O)Nc1c(C)csc1C(=O)OC (configuration not stated) [Articaine HCl] | inactive: 0.431 |
| Nc1nc(=O)c2c([nH]1)NC[C@H](CNc1ccc(C(=O)N[C@@H](CCC(=O)O)C(=O)O)cc1)N2C=O [Calcium Levofolinate] | active: -2.03 |
| COc1ccc(CCc2nc3cc(-c4c(C)noc4C)ccc3n2C[C@H](C)N2CCOCC2)cc1Cl | inactive: 0.104 |
| O=C(O)c1cc2cccc([N+](=O)[O-])c2[nH]1 | inactive: 0.499 |
| CN(C)CCC(c1ccc(Cl)cc1)c1ccccn1 (configuration not stated) [Chlorpheniramine Maleate] | inactive: -0.424 |
| OCC(O)CN1CCN(c2ccccc2)CC1 (configuration not stated) [Dropropizine] | inactive: -0.653 |
| COc1ccccc1N1CCN(CCN2C(=O)CC3(CCCC3)CC2=O)CC1 | inactive: -0.426 |
| COc1ccc(-c2coc3cc(O)cc(O)c3c2=O)cc1 [Biochanin A] | inactive: 1.16 |
| NS(=O)(=O)NCCNc1nonc1/C(=N/O)Nc1ccc(F)c(Br)c1 | inactive: 0.983 |
| O[C@@H](COc1cccc2ncccc12)CN1CCN(C2c3ccccc3[C@@H]3[C@H](c4ccccc42)C3(F)F)CC1 (some centres not stated) | inactive: -0.833 |
| O=S(=O)(NCCNC/C=C/c1ccc(Br)cc1)c1cccc2cnccc12 | inactive: -0.475 |
| CCC(=O)NCC[C@@H]1CCc2ccc3c(c21)CCO3 [Ramelteon] | inactive: -0.439 |
| COC1=CC(=O)C[C@@H](C)[C@]12Oc1c(Cl)c(OC)cc(OC)c1C2=O [Griseofulvin] | inactive: 4.87 |
| CC(C)(C)c1cc(/C=C(\C#N)C(N)=S)cc(C(C)(C)C)c1O [Tyrphostin AG 879] | inactive: -0.0588 |
| CC[C@H](Nc1ncnc2[nH]cnc12)c1nc2cccc(F)c2c(=O)n1-c1ccccc1 [CAL-101 (Idelalisib_ GS-1101)] | inactive: -0.223 |
| CC(C)c1noc(N2CCC(COc3ccc(-c4ccc(S(C)(=O)=O)cc4)nc3)CC2)n1 | inactive: 0.337 |
| O=C(NC1CCNCC1)c1n[nH]cc1NC(=O)c1c(Cl)cccc1Cl | active: -6.28 and active: -6.54 |
| O=CN1CC/C(=C/c2ccc3c(c2)OCO3)C1=O | inactive: 0.148 |
| Cc1onc(-c2ccccc2)c1C(=O)N[C@@H]1C(=O)N2[C@@H]1SC(C)(C)[C@@H]2C(=O)O [Oxacillin sodium monohydrate] | inactive: -0.238 |
| CCCC(CCC)C(=O)O [Valproic acid sodium salt (Sodium valproate)] | inactive: 0.0724 |
| CCCC(CCC)C(=O)O [Divalproex Sodium] | inactive: -0.628 |
| CN(C)[C@@H](CCOc1cccc2ccccc12)c1ccccc1 [Dapoxetine HCl] | inactive: 0.00662 |
